At least one compound was matched to its structure with a doubt left. Bridge positions count the residues as written; N and C are the ends. Square brackets hold non-standard residues; d marks the D form. Peptide text beside a SMILES is read from it. * marks the point of attachment. Trp(1-CH2COOH) = N[C@@H](Cc1cn(CC(=O)O)c2ccccc12)C(=O)O; NMePhe(4-COOH) = CN[C@@H](Cc1ccc(C(=O)O)cc1)C(=O)O; Nle(6-morpholino) = N[C@@H](CCCCN1CCOCC1)C(=O)O; Phe(3-COOH) = N[C@@H](Cc1cccc(C(=O)O)c1)C(=O)O; NMePhe(3-Cl) = CN[C@@H](Cc1cccc(Cl)c1)C(=O)O; Trp(1-Me) = Cn1cc(C[C@H](N)C(=O)O)c2ccccc21; 3Pal(6-OMe) = COc1ccc(C[C@H](N)C(=O)O)cn1; 3Pal(6-NH2) = Nc1ccc(C[C@H](N)C(=O)O)cn1; NMeW = CN[C@@H](Cc1c[nH]c2ccccc12)C(=O)O; Tyr(3-Me) = Cc1cc(C[C@H](N)C(=O)O)ccc1O; NMeY = CN[C@@H](Cc1ccc(O)cc1)C(=O)O; Nva(3-Et) = CCC(CC)[C@H](N)C(=O)O; PEG4 = NCCOCCOCCOCCOCCC(=O)O; Carboxymethyl = O=C(O)C*
Tests used:
[1] = biological target: T1, human transferrin receptor (hTfR) (Homo sapiens, UniProt P02786); assay: SPR measurement under pH 7.4 conditions (Biacore T200, CM3 chip, hTfR captured by His Tag antibody); assay type: binding; settings: SPR, pH 7.4; read-out: hTfR SPR pH7.4 KD
Experimental: (§1) Molecular interactions between the synthesized peptides and the transferrin receptor (hTfR) were evaluated by surface plasmon resonance (SPR) using the following method. The specific assay procedure is described below.
An CM3 sensor chip (Cytiva) was inserted into BiacoreT200 (Cytiva), then a priming operation was performed three times by using a running buffer: HBS-P+, pH7.4 (Cytiva), and an equilibrium state was created at a flow rate of […]. Ligand immobilization was performed at a flow rate of 10 µL/min. After mixing 50 µL each of 60 mM EDC solution (Cytiva) and 650 mM NHS solution (Cytiva), the mixture was reacted at a flow rate of 10 µL/min for 420 seconds. 150 µL of […] THE His Tag Antibody, mAb, Mouse (GenScript) was prepared by diluting with 10 mM acetic acid solution (pH 5.0), and reacted at a flow rate of 10 µL/ min for 420 seconds. Then, THE His Tag Antibody, mAb, Mouse (GenScript) was immobilized as a capture molecule on the CM3 sensor chip. After immobilization, capping was performed by reacting with 1.0 M ethanolamine solution (Cytiva) at a flow rate of 10 µL/min for 420 seconds. 300 nM hTfR was captured at a flow rate of 10 µL/min, a peptide solution prepared at 10 mM in DMSO was diluted with running buffer to achieve a final concentration of 10 µM, and peptide solutions at 250 nM, 125 nM, 62.5 nM, 25 nM, and 12.5 nM were prepared. . The peptide samples were reacted at a flow late of 30 µL/min for 120 seconds, followed by dissociation for 600 seconds. The kinetics of the peptide against hTfR was obtained by SPR measurement for the above samples.
(§2) The kinetic evaluation model was single-cycle kinetics, and curve fitting was performed using Biacore T200 Evaluation Software Version 3.0 (Cytiva). The binding of the peptide to hTfR was evaluated by performing curve fitting on the obtained sensorgram by the least squares method and obtaining the kon value, the koff value, and the KD value.

[2] = biological target: T1, human transferrin receptor (hTfR); assay: SPR measurement under pH 6.0 conditions (Biacore T200, NTA chip, immobilized hTfR); assay type: binding; settings: SPR, pH 6.0, read-out: hTfR SPR pH6.0 KD
Experimental: as §1
An NTA sensor chip (Cytiva) was inserted in a Biacore T200 (Cytiva), a priming operation was performed 3 times with a running buffer: HBS-P+ pH 6.0 (Cytiva), and an equilibrium state was created at a flow rate of 30 µL/min. A ligand immobilization operation was carried out at a flow rate of 10 µL/min.
The surface of the NTA sensor chip was washed with 350 mM EDTA solution, nickel ions were loaded into the carbomethyldextran chains of the sensor chip with a 500 µM aqueous nickel chloride solution, and then washing was performed with 3 mM EDTA solution. After mixing 50 µL of each of 60 mM EDC solution (Cytiva) and 650 mM NHS solution (Cytiva), the mixture was reacted for 420 seconds at a flow rate of 10 µL/min. 150 µL of 0.2 µM hTfR solution was prepared by diluting with 10 mM acetic acid solution (pH 5.0), and reacted for 420 seconds at a flow rate of 10 µL/min to immobilize hTfR on the NTA sensor chip. For the human transferrin receptor (hTfR), the recombinant hTfR described in Example 2 of WO2018/124121 was used. After immobilization, capping was performed by reacting with 1.0 M ethanolamine aqueous solution (Cytiva) at a flow rate of 10 µL/min for 420 seconds. Peptide lysate prepared in DMSO to 10 mM was diluted with the running buffer to a final concentration of 10 µM peptide lysate, and then peptide solutions of 250 nM, 125 nM, 62.5 nM, 25 nM, and 12.5 nM were prepared. The kinetics of the peptide against hTfR was obtained by SPR measurement using the above samples.
as §2

T1 sequence (P02786 whole entry): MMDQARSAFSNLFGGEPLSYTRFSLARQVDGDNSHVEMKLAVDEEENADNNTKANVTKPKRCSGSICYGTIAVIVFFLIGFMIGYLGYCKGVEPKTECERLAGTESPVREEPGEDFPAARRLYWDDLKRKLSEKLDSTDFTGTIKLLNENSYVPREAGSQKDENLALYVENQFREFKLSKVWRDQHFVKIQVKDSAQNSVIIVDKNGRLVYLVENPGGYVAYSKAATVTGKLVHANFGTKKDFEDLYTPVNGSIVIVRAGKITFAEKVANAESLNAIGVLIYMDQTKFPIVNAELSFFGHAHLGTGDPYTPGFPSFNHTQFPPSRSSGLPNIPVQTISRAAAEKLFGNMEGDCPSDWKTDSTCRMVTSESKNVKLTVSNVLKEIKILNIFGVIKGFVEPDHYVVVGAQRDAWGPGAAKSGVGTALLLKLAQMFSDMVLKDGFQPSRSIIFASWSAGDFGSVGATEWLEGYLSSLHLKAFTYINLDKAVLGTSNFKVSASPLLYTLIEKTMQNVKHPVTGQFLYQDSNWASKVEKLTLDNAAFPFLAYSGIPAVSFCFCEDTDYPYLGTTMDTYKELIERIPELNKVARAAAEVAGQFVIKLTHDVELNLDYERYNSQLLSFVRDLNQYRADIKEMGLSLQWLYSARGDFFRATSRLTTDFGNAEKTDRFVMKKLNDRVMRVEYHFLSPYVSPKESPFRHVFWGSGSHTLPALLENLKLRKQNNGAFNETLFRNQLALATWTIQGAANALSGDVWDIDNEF

SMILES	Kd [1] [nM]	Kd [2] [nM]	Kd ([2]; peptide with the linker named in the table) [nM]
CC[C@H](C)[C@@H]1NC(=O)[C@H](Cc2ccc(OCC(=O)O)cc2)NC(=O)[C@H](Cc2ccc(O)cc2)NC(=O)[C@H](CC(N)=O)NC(=O)[C@H](Cc2cn(C)c3ccccc23)NC(=O)[C@H](C(C)C)NC(=O)[C@H](Cc2cccc(Cl)c2)N(C)C(=O)[C@H](C(C)C)NC(=O)[C@H](C)NC(=O)CSC[C@@H](C(=O)NCCOCCOCCOCCOCCC(N)=O)NC(=O)[C@H](Cc2ccc(O)cc2)N(C)C(=O)[C@H](Cc2cccc(C(=O)O)c2)NC(=O)[C@H](CCCNC(=N)N)NC(=O)[C@H](CCC(N)=O)NC(=O)[C@H]([C@@H](C)CC)NC1=O [compound 79] ({CH2CO}-AV[NMePhe(3-Cl)]V[Trp(1-Me)]NYY(Carboxymethyl)IIQR[Phe(3-COOH)][NMeY]C[PEG4]-NH2; thioether N-15)	2.69	3.76	–
CCC(CC)[C@@H]1NC(=O)[C@H](Cc2ccc(OCC(=O)O)cc2)NC(=O)[C@H](Cc2ccc(N)nc2)NC(=O)[C@H](CC(N)=O)NC(=O)[C@H](Cc2cn(CC(=O)O)c3ccccc23)NC(=O)[C@H](C(C)C)NC(=O)[C@H](Cc2cccc(Cl)c2)N(C)C(=O)[C@H](C(C)C)NC(=O)[C@H](C)NC(=O)CSC[C@@H](C(=O)NCCOCCOCCOCCOCCC(N)=O)NC(=O)[C@H](Cc2ccc(C(=O)O)cc2)N(C)C(=O)[C@H](Cc2cccc(C(=O)O)c2)NC(=O)[C@H](CCCCN2CCOCC2)NC(=O)[C@H](CCCCN2CCOCC2)NC(=O)[C@H]([C@@H](C)CC)NC1=O [compound 86] ({CH2CO}-AV[NMePhe(3-Cl)]V[Trp(1-CH2COOH)]N[3Pal(6-NH2)]Y(Carboxymethyl)[Nva(3-Et)]I[Nle(6-morpholino)][Nle(6-morpholino)][Phe(3-COOH)][NMePhe(4-COOH)]C[PEG4]-NH2; thioether N-15)	1530	406	–
CCC(CC)[C@@H]1NC(=O)[C@H](Cc2ccc(OCC(=O)O)cc2)NC(=O)[C@H](Cc2ccc(O)c(C)c2)NC(=O)[C@H](CC(N)=O)NC(=O)[C@H](Cc2cn(CC(=O)O)c3ccccc23)NC(=O)[C@H](C(C)C)NC(=O)[C@H](Cc2cccc(Cl)c2)N(C)C(=O)[C@H](C(C)C)NC(=O)[C@H](C)NC(=O)CSC[C@@H](C(=O)NCCOCCOCCOCCOCCC(N)=O)NC(=O)[C@H](Cc2ccc(O)cc2)N(C)C(=O)[C@H](Cc2cccc(C(=O)O)c2)NC(=O)[C@H](CCCNC(=N)N)NC(=O)[C@H](CCC(N)=O)NC(=O)[C@H]([C@@H](C)CC)NC1=O [compound 89] ({CH2CO}-AV[NMePhe(3-Cl)]V[Trp(1-CH2COOH)]N[Tyr(3-Me)]Y(Carboxymethyl)[Nva(3-Et)]IQR[Phe(3-COOH)][NMeY]C[PEG4]-NH2; thioether N-15)	50	250	–
CCC(CC)[C@@H]1NC(=O)[C@H](Cc2ccc(OC)nc2)NC(=O)[C@H](Cc2ccc(O)cc2)NC(=O)[C@H](CC(N)=O)NC(=O)[C@H](Cc2cn(CC(=O)O)c3ccccc23)NC(=O)[C@H](C(C)C)NC(=O)[C@H](Cc2cccc(Cl)c2)N(C)C(=O)[C@H](C(C)C)NC(=O)[C@H](C)NC(=O)CSC[C@@H](C(=O)NCCOCCOCCOCCOCCC(N)=O)NC(=O)[C@H](Cc2ccc(O)cc2)N(C)C(=O)[C@H](Cc2cccc(C(=O)O)c2)NC(=O)[C@H](CCCNC(=N)N)NC(=O)[C@H](CCC(N)=O)NC(=O)[C@H]([C@@H](C)CC)NC1=O [compound 90] ({CH2CO}-AV[NMePhe(3-Cl)]V[Trp(1-CH2COOH)]NY[3Pal(6-OMe)][Nva(3-Et)]IQR[Phe(3-COOH)][NMeY]C[PEG4]-NH2; thioether N-15)	3.94	29.8	–
CC[C@H](C)[C@@H]1NC(=O)[C@H](Cc2ccc(O)cc2)NC(=O)[C@H](Cc2ccc(N)nc2)NC(=O)[C@H](CC(N)=O)NC(=O)[C@H](Cc2c[nH]c3ccccc23)N(C)C(=O)[C@H](C(C)C)NC(=O)[C@H](Cc2cccc(Cl)c2)N(C)C(=O)[C@H](C(C)C)NC(=O)[C@H](C)NC(=O)CSC[C@@H](C(=O)NCCOCCOCCOCCOCCC(N)=O)NC(=O)[C@H](Cc2ccc(O)cc2)N(C)C(=O)[C@H](Cc2ccc(O)cc2)NC(=O)[C@H](CCCNC(=N)N)NC(=O)[C@H](CCCCN)NC(=O)[C@@H](CO)NC1=O [compound 138] ({CH2CO}-AV[NMePhe(3-Cl)]V[NMeW]N[3Pal(6-NH2)]YI[dS]KRY[NMeY]C[PEG4]-NH2; thioether N-15)	–	–	16.2

From patent EP4667483A1, “HUMAN TRANSFERRIN RECEPTOR-BINDING PEPTIDE” (JCR Pharmaceuticals Co., Ltd., priority 2023, dated 2024)
